# From PubChem BioAssay (NCI)
#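 Method: 48-hour compound exposure of cells in 96-well plates, five concentrations, linear interpolation of endpoints. GI50 is the concentration that inhibits growth by half. TGI marks complete inhibition of growth.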
# Test system: NCI-H322M lung
# Experiment: inhibition of tumour cell growth, NCI panel, 48 h
Structure (SMILES),GI50 [µM],TGI [µM]
COc1ccc(/C=N/NC(=O)c2[nH]c3ccc(Br)cc3c2-c2ccccc2)s1,0.365,> 100
CN(C)CCCNc1c2ccc(Cl)cc2nc2c1oc1ccccc12,2.45,9.44
CC(=O)Nc1cc(F)cc(-c2ccc3[nH]cc(-c4ccccc4)c3n2)c1,4.14,16
CCNCCOc1ccc(/C(=C(/CC)c2ccc(Cl)cc2)c2ccc(OCCCN(C)C)cc2)cc1,3.84,7.32
